This is an account of results in paper PMC7363125.

Common to all, as to assay: pull-down; GST-PDZD11 baits (full-length, truncated, 1-30, mutants; E. coli) on GSH-Sepharose beads, incubated 1 h at 4 °C with insect cell lysate holding full-length PLEKHA7-His; immunoblot with anti-His; only the target purified
On the technique in general: A western blot detects proteins with antibodies after separation by electrophoresis.

The target in experiment [1] is T1, GST-PDZD11 N-term 1-30, WT (human) (UniProt Q5EBL8).
T1 sequence: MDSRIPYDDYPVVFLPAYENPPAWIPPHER

Experiment [2] deals with T2, GST-PDZD11 N-term 1-30 P16,21,22A (human) (UniProt Q5EBL8).
T2 sequence: T1 sequence with P16A, P21A, P22A

In experiment [3] the target is T3, GST-PDZD11 Δ4 (deletion of 4 N-terminal residues of full-length PDZD11) (human) (UniProt Q5EBL8).
T3 sequence: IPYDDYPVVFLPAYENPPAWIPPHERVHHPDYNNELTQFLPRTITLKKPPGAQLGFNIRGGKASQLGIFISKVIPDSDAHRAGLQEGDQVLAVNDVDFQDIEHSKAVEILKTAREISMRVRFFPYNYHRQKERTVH

Experiment [4] has as its target T4, GST-PDZD11 N-term 1-30 P16,21,22,26,27A (human) (UniProt Q5EBL8).
T4 sequence: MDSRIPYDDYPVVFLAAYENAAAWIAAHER

Experiment [5] has as its target T5, GST-PDZD11 full-length (residues 1-140), WT (human) (UniProt Q5EBL8).
T5 sequence: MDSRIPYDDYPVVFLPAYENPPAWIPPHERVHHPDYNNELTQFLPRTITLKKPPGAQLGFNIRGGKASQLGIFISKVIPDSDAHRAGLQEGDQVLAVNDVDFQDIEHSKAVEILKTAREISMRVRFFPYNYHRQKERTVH

The target in experiment [6] is T6, GST-PDZD11 N-term 1-30 P26A + P27A (human) (UniProt Q5EBL8).
T6 sequence: T1 sequence with P26A, P27A

Experiment [7] concerns the target T7, GST-PDZD11 full-length P26A + P27A (human) (UniProt Q5EBL8).
T7 sequence: T5 sequence with P26A, P27A

In experiment [8] the target is T8, GST-PDZD11 full-length P16,26,27A (human) (UniProt Q5EBL8).
T8 sequence: T5 sequence with P16A, P26A, P27A

Experiment [9] deals with T9, GST-PDZD11 full-length P16A (human) (UniProt Q5EBL8).
T9 sequence: T5 sequence with P16A

Experiment [10] has as its target T10, GST-PDZD11 Δ9 (deletion of 9 N-terminal residues of full-length PDZD11) (human) (UniProt Q5EBL8).
T10 sequence: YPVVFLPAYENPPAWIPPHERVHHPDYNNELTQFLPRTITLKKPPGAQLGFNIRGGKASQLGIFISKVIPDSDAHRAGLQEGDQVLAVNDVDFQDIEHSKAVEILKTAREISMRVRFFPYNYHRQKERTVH

In experiment [11] the target is T11, GST-PDZD11 N-term 1-30 P21A,P22A (human) (UniProt Q5EBL8).
T11 sequence: T1 sequence with P21A, P22A

Experiment [12] has as its target T12, GST-PDZD11 N-term 1-30 P16,26,27A (human) (UniProt Q5EBL8).
T12 sequence: T4 sequence with A21P, A22P

Positions count from the first letter of the chain named. These are yes or no findings as the source states them, for the method shown. In cells and extracts the contact can be indirect. Some entries that bind do so weakly or less than the wild type. Sequences can lack the tags named with a protein.

B1: PLEKHA7-His, full-length (protein, UniProt Q6IQ23 1-1121)
chain: MAAATVGRDTLPEHWSYGVCRDGRVFFINDQLRCTTWLHPRTGEPVNSGHMIRSDLPRGWEEGFTEEGASYFIDHNQQTTAFRHPVTGQFSPENSEFILQEEPNPHMSKQDRNQRPSSMVSETSTAGTASTLEAKPGPKIIKSSSKVHSFGKRDQAIRRNPNVPVVVRGWLHKQDSSGMRLWKRRWFVLADYCLFYYKDSREEAVLGSIPLPSYVISPVAPEDRISRKYSFKAVHTGMRALIYNSSTAGSQAEQSGMRTYYFSADTQEDMNAWVRAMNQAAQVLSRSSLKRDMEKVERQAVPQANHTESCHECGRVGPGHTRDCPHRGHDDIVNFERQEQEGEQYRSQRDPLEGKRDRSKARSPYSPAEEDALFMDLPTGPRGQQAQPQRAEKNGMLPASYGPGEQNGTGGYQRAFPPRTNPEKHSQRKSNLAQVEHWARAQKGDSRSLPLDQTLPRQGPGQSLSFPENYQTLPKSTRHPSGGSSPPPRNLPSDYKYAQDRASHLKMSSEERRAHRDGTVWQLYEWQQRQQFRHGSPTAPICLGSPEFTDQGRSRSMLEVPRSISVPPSPSDIPPPGPPRVFPPRRPHTPAERVTVKPPDQRRSVDISLGDSPRRARGHAVKNSSHVDRRSMPSMGYMTHTVSAPSLHGKSADDTYLQLKKDLEYLDLKMTGRDLLKDRSLKPVKIAESDTDVKLSIFCEQDRVLQDLEDKIRALKENKDQLESVLEVLHRQMEQYRDQPQHLEKIAYQQKLLQEDLVHIRAELSRESTEMENAWNEYLKLENDVEQLKQTLQEQHRRAFFFQEKSQIQKDLWRIEDVTAGLSANKENFRILVESVKNPERKTVPLFPHPPVPSLSTSESKPPPQPSPPTSPVRTPLEVRLFPQLQTYVPYRPHPPQLRKVTSPLQSPTKAKPKVEDEAPPRPPLPELYSPEDQPPAVPPLPREATIIRHTSVRGLKRQSDERKRDRELGQCVNGDSRVELRSYVSEPELATLSGDMAQPSLGLVGPESRYQTLPGRGLSGSTSRLQQSSTIAPYVTLRRGLNAESSKATFPRPKSALERLYSGDHQRGKMSAEEQLERMKRHQKALVRERKRTLGQGERTGLPSSRYLSRPLPGDLGSVC
With B1, the binding entry in experiment [1] is “binds”; in [2] it was “no binding”; in [3], “binds”; in experiment [4] it was “no binding”; in [5], “binds”; in [6], “binds”. The binding result in [7] is listed as “binds”; in experiment [8], “no binding”; in [9] it was “binds”; in experiment [10], “binds”; in experiment [11], “binds”; in experiment [12] it was “no binding”.
